48 compounds from PubChem BioAssay AID1508642 (National Center for Advancing Translational Sciences (NCATS), 2021) can be followed below.

Molecules are shown by their SMILES. In all, about 43,000 compounds went through this assay and about 200 (0.47%) were called active. Another 12% or so got no clear call; they are omitted. Calls follow the shape of the dose curve; as a rule, active = well fitted cell-killing curve with a large enough effect; inconclusive = small, poorly fitted or top-dose-only effect, or effect the other way; inactive = flat fitted curve, though single readings scatter. The list shows a part of the results.
% is scaled to controls: 0 for no effect and ±100 for the full control effect.

A short description of the assay: Cell viability qHTS assay in S16 Pmp22-F2sN cells. Also: nearly all actives have a fitted effect of over 65% in size. Conditions: S16 Pmp22-F2sN Schwann cells viability, CellTiter-Glo, 24 h; series mostly up to 57.5 µM; activity change, negative = cytotoxicity: at the top concentration. In short, it runs like this:
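Used to flag compounds lowering reporter output through toxicity, this quantitative HTS measures ATP-based CellTiter-Glo luminescence in S16 Pmp22-F2sN Schwann cells after 24 h compound exposure at 37C.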
Background: Quantitative high-throughput screening tests each substance at several concentrations.
For the compound `Clc1ccc(-c2noc3ncnc(NC4CCCCC4)c23)cc1`, the “activity change, negative = cytotoxicity” value is inactive: -0.473%.
`Cc1ccc(CCNC(=O)c2cnc3c(-c4ccc(F)cc4)c(C)nn3c2C)cc1`: the “activity change, negative = cytotoxicity” value was inactive: -3.83%.
For the compound `Cc1ccccc1OCCn1cc(C(=O)c2ccco2)c2ccccc21`, the “activity change, negative = cytotoxicity” value was inactive: -1.25%.
The value for `Cc1ccc(-c2nn3c(=O)cc(CN4CCN(C(=O)Nc5cccc(C(F)(F)F)c5)CC4)nc3s2)cc1` was inactive: 13.9%; that for `NC(=O)Cn1c(=O)n(CCCCCC(=O)NCc2ccc3c(c2)OCO3)c(=O)c2sccc21` was inactive: 14.4%.
Under `CC(CNC(=O)c1ccc(Cn2c(=O)c3cccn3c3cccnc32)cc1)c1ccccc1` (stereo not drawn) stands inactive: 0.458%; under `COc1cc(CNC(=O)c2ccc3nc(Cc4ccccc4)oc3c2)cc(OC)c1OC`, inactive: -32.2%; under `COc1ccc2c(c1)c1c(c(=O)n(-c3ccc(OC)c(OC)c3)c(=O)n1Cc1ccc(F)cc1)n2C`, inactive: -14.9%.
Consider `Cc1cn2c(=O)cc(COC(=O)c3ccc(NC(=O)c4ccccc4C)cc3)nc2s1`, for which the “activity change, negative = cytotoxicity” value was inactive: 13.2%.
The value for `Cc1ccccc1CS(=O)(=O)Cc1ccc(C(=O)NCCc2ccc(Cl)cc2)o1` was inactive: -20.2%; that for `COc1cccc(Cn2nnc(C(=O)NCc3ccc(Cl)cc3Cl)c2N)c1` was inactive: -16.2%; that for `CCc1cccc(NC(=O)Cn2c(=O)n3nc(-c4cccc(F)c4)nc3c3ccccc32)c1` was inactive: 11.4%.
Under `Cc1ccccc1C(=O)Nc1sc2c(c1C(=O)N1CCC(C)CC1)CCC(C)C2` (stereo not drawn) stands inactive: 21.6%; under `CCOc1cc2[nH]c(=O)n(CCCCC(=O)N3CCN(c4ccccc4OC)CC3)c(=O)c2cc1OCC`, inactive: 2.26%; under `O=c1c(S(=O)(=O)c2ccccc2)cn(Cc2ccccc2)c2cc(N3CCCC3)c(F)cc12`, inactive: -18.2%.
The value for `Cc1nn(C)c2c1c(C(F)(F)F)cc(=O)n2Cc1ccc(Br)cc1F` was inactive: 6.83%.
For the compound `Cn1c(=O)c2c(nc(CN3CCN(c4ccccc4F)CC3)n2Cc2ccc(F)cc2)n(C)c1=O`, the “activity change, negative = cytotoxicity” value is inactive: -26%.
In the case of `COc1ccc(OC)c(C2CC(=O)Nc3c2c(=O)[nH]c2nc4ccccc4n32)c1` (stereo not drawn), the “activity change, negative = cytotoxicity” value was inactive: -7.64%.
Under `CCOC(=O)C1CCN(CCC(=O)Nc2ccccc2OC)CC1` stands inactive: -1.27%; under `N#Cc1ccc(NC(=O)COCc2cc(-c3ccco3)on2)cc1`, inactive: 3.08%; under `Cc1cccc(NC(=O)CSc2nc3n[nH]c(C)c3c(=N)n2-c2cccc(Cl)c2)c1`, inactive: -24.2%.
The value for `Cc1cc(C)cc(C(=O)NCCc2sc(-c3ccc(F)cc3)nc2C)c1` was inactive: -2.61%.
Under `O=S(=O)(NCC(c1ccco1)N1CCN(c2ccccc2)CC1)c1cc(F)ccc1F` (stereo not drawn) stands inactive: -16.9%; under `Cc1cc(C)cc(N2CCn3c2nc2c3c(=O)n(Cc3c(F)cccc3Cl)c(=O)n2C)c1`, inactive: 6.25%; under `CCc1ccc(/C=C(/C#N)c2nc(-c3ccc(C)cc3)cs2)cc1`, inactive: 26.5%.
Turning to `CC(C)(C)OC(=O)N1CCC(c2c(C(=O)NCCN3CCOCC3)cnn2-c2cccc(Cl)c2)CC1`, the “activity change, negative = cytotoxicity” value was inactive: 1.1%.
The value for `O=C(Cn1c(=O)c(CNc2ccccc2)cc2cc3c(cc21)OCCO3)Nc1ccccc1Cl` was inactive: -16.4%; that for `CCc1ccc2oc(-c3ccc(C)c(NC(=O)Cc4ccccc4)c3)nc2c1` was inactive: 6.71%; that for `Cc1c(C(=O)Nc2ccc(F)c(Cl)c2)sc2nc3n(c(=O)c12)CCC3` was inactive: -6.96%.
`COc1ccc(NC(=O)c2ccco2)cc1NC(=O)c1ccc(C#N)cc1F`: the “activity change, negative = cytotoxicity” value is inactive: 4.64%.
For `O=C(NCCc1ccccc1)C1CCN(c2nc3ccccc3nc2C(F)(F)F)CC1`, the “activity change, negative = cytotoxicity” value is inactive: 14%.
The value for `CCCCCSc1nnc2c(n1)[nH]c1c(C)cccc12` was inactive: -19.6%; that for `COc1ccccc1N1CCN(c2ncnc3c2cnn3-c2ccc(C)cc2)CC1` was inactive: -1.82%.
The value for `COCCn1c(SCC(=O)c2ccc(C)cc2)nc2cc(C(=O)NC3CCCC3)ccc2c1=O` was inactive: -0.583%.
The value for `Cc1cc(C)c(NC(=O)c2oc3c(c2C)-c2[nH]ncc2CC3)c(C)c1` was inactive: 2.98%; that for `Cc1cccc(CN2CCN(CC(=O)NCCc3ccc(Cl)cc3)C2=O)c1` was inactive: -0.64%.
Turning to `CCCCOc1ccc(C(=O)NCCc2sc3nc(-c4ccc(OC)cc4)nn3c2C)cc1`, the “activity change, negative = cytotoxicity” value is inactive: 8.64%.
As for `O=C(Nc1ccc(N2CCN(c3ccc(F)cc3)CC2)c(C(=O)O)c1)c1cccs1`, the “activity change, negative = cytotoxicity” value is inactive: 2.35%.
The value for `CCOc1cc2c(cc1OCC)C(CC(=O)O)N(C(=O)Nc1ccc(Br)c(C)c1)CC2` (stereo not drawn) was inactive: -11.1%.
Under `CCN(CC)c1nn2c(=O)c(C(=O)NCCc3ccccc3C)cnc2s1` stands inactive: -9.46%; under `O=C(NCc1ccc(Cl)cc1)C1CCC(CNS(=O)(=O)c2ccccc2)CC1` (stereo not drawn), inactive: -14.6%; under `CCOc1ccc(N(C)C(=O)C2CCN(S(=O)(=O)c3c(C)noc3/C=C/c3ccc(C)cc3)CC2)cc1`, inactive: -12.1%.
The value for `CCOC(=O)c1ccccc1NC(=O)CN1C(=O)CC(c2ccccc2)Sc2ccccc21` (stereo not drawn) was inactive: 1.15%; that for `COc1ccc(Cl)cc1NC(=O)CSc1nc2c(oc3ccccc32)c(=O)n1Cc1ccco1` was inactive: 14%.
`CCCCOc1ccc(C(=O)NCc2cn3cccc(C)c3n2)cc1`: the “activity change, negative = cytotoxicity” value was inactive: 3.01%.
Under `Cc1cccc(-c2nc3scc(CCNS(=O)(=O)c4ccc(F)c(C(F)(F)F)c4)n3n2)c1` stands inactive: 1.35%; under `COc1ccc(CCNC(=O)c2cc3c(=O)n(C)c4ccccc4c3s2)cc1OC`, inactive: -0.438%.
Under `Cc1ccc(C)c(N2CCN(S(=O)(=O)c3ccc(C(=O)N(C)C)s3)CC2)c1` stands inactive: 1.91%.
